Read counts are not given, so values of variants with three or more changes are uncertain.
B1: LINE1-full (parent)
chain: UACGUAGGUGGUUUUCCCCUGAUAGUGCUAAGGGGGCCUGGAAGUUUGGACUGGGCAGAGCUCAACACAGCGUGGCAAAGUGGCUGUGGCUAGACUGCCUCUCUGGAUUCCUCGUCACUCAGCAGGGCAUCUCUGAGAGAAAUGCC

Variants of: B1
Test: self-cleavage, relative activity (ratio to wild type); higher = more cleavage; in vitro, sequencing; the parent is a self-cleaving ribozyme
In the case of U13C U109A U112C, the self-cleavage is reported as 1.14. C3A A64G U85A U104C gave a self-cleavage of 0. For U9C U13A U15C A24U C61G, the self-cleavage was 0. In the case of A77G C90U U102C, the self-cleavage is reported as 0.03. Work on U12A A22G U104A U112A A121U yielded a self-cleavage of 1.06. C28G U46C U119C gave a self-cleavage of 1.21. With U9G A50G G86A the self-cleavage was 0.43. In the case of U73C A78G C99U, the self-cleavage is reported as 0.55. U12C U15C G36A A124U A141G gave a self-cleavage of 0.84. U14C A64U U119C A124U gave a self-cleavage of 0.46. Work on U1C U12C U52A yielded a self-cleavage of 1.19. With A6C U13C U14G A69U A121U the self-cleavage was 0.14. Work on A42G A43U U52C A59U U115C yielded a self-cleavage of 0.57. In the case of U100A U115C U119A, the self-cleavage is reported as 1.36. Work on U12C U14C G93A U132A yielded a self-cleavage of 0.19. Work on A2U C3A C17U A42G A121U yielded a self-cleavage of 1.25. For U5C C101U U102C U104A U134A, the self-cleavage was 0.86. For A24G U29A U143C, the self-cleavage was 0.66. A65G U109A U130C gave a self-cleavage of 0.11. For G34A G105A U119C A121U, the self-cleavage was 1.54. For U46C U108C A138G A141U U143C, the self-cleavage was 2.22. Work on U29A A30G U47A A50G C146G yielded a self-cleavage of 1.12. For U13C U26G G34A A140G, the self-cleavage was 1.49. With A57G A79U U115A the self-cleavage was 1.78. In the case of U52A G54C U132C, the self-cleavage is reported as 0.55. A6G U15C U52A U108C gave a self-cleavage of 0.66. U12A U52C U100C showed a self-cleavage of 0.2. Work on U46C C120U G127A yielded a self-cleavage of 1.42. Work on U9C A65G A92G G105C yielded a self-cleavage of 0. In the case of G10A U39C U85C, the self-cleavage is reported as 0.2. Work on U20C U45C A136G yielded a self-cleavage of 1.29. U47A A57U A64U gave a self-cleavage of 0.04. Work on G82A U130C A138U yielded a self-cleavage of 2.26. With G35A U62C A69U the self-cleavage was 0.03. With A42G A79G C111A A142G the self-cleavage was 1.59. In the case of U9C U20A U47C, the self-cleavage is reported as 1.36. In the case of U73C C118U A136G, the self-cleavage is reported as 2.2. Variant U5C G41A A69U U87A has a self-cleavage of 0.02. Variant G7A U13C U39C U45A has a self-cleavage of 1.3. In the case of U13C A65G A67G U87A C120U, the self-cleavage is reported as 0.11. For U20A A69U A117G U119C A124G A138U, the self-cleavage was 0. With U9C U12G A136U the self-cleavage was 1.28. A6U U108C U115C showed a self-cleavage of 2.14. U26C A59U A121G showed a self-cleavage of 1.56. Variant U46A A94G A141G has a self-cleavage of 0.2. With U15A C110U U130A the self-cleavage was 1.08. U15A G93U A136G showed a self-cleavage of 0.03. For A59U U112A A129G A141G, the self-cleavage was 1.9. A30G A31G C76U U96C gave a self-cleavage of 0.14. With U81C A121G A141G the self-cleavage was 2.66. For A77G U85A U104A A121G, the self-cleavage was 0.06. Work on C66U U96C C123U yielded a self-cleavage of 0.01. With A43G U96C U130C the self-cleavage was 0.13. With U26G C71U U87C U100C the self-cleavage was 0.16. For U45C U132A A138G A142G, the self-cleavage was 2.25. U1C U46A A107C G127A gave a self-cleavage of 1.36. In the case of U9C A42G A78G, the self-cleavage is reported as 1.13. With U46C A57G A64G C145U the self-cleavage was 0. Variant U12C U15C A43U has a self-cleavage of 1.09. With A24C U62C G83A the self-cleavage was 0. With G4A U26A A59G G114A A136G the self-cleavage was 0.06. In the case of U12G G32U G36C A59G U73C, the self-cleavage is reported as 0.71. With G4A A57U A64U A136G the self-cleavage was 0.09. With U81A U85C U115C the self-cleavage was 0.39. U20C G35A A94U A138G showed a self-cleavage of 0.22. A2G U14C U73A U132C showed a self-cleavage of 1.3. Work on C61U A77U A121C yielded a self-cleavage of 0.04. Work on U81C U104C C110A A138G yielded a self-cleavage of 1.84. U14C G35U U85A showed a self-cleavage of 0.21. Variant A30C A31G A69G has a self-cleavage of 0. U23A U112C A141G A142G showed a self-cleavage of 1.31. For U15C C19A A117G U119A, the self-cleavage was 0. A6G G7A U15A A43G U81C showed a self-cleavage of 0.92. Work on A69U U119A U143A yielded a self-cleavage of 0.13. With U29C A50G U143C the self-cleavage was 1.35. For A50G U102C U130C, the self-cleavage was 2.3. For A42C U87C A129U, the self-cleavage was 0. Variant U46A A67G U87A A136U has a self-cleavage of 0.09. In the case of U1A U91A A117G, the self-cleavage is reported as 0.26. Work on U5C G11A G41A U47A A69G yielded a self-cleavage of 0.31. U1C A78G A79G gave a self-cleavage of 0.9. In the case of A42G A94G A138G A141G, the self-cleavage is reported as 0.88. For U14C A77U U104A, the self-cleavage was 2.25. For A6G U109C C120A, the self-cleavage was 0.74. Variant U9A G36A G55A A117C has a self-cleavage of 0.82. In the case of A6G U46C U87C, the self-cleavage is reported as 0. With A50U U115C A124G the self-cleavage was 0.84. In the case of A57U A94G A107G, the self-cleavage is reported as 0. U29C G53A U62C gave a self-cleavage of 0.12. Work on U20A A43G U104C C131U G137A yielded a self-cleavage of 1.51. In the case of U14C U52C A59U, the self-cleavage is reported as 0.59. With U26C G32U U47A U73A the self-cleavage was 1.49. G41U G48A A92U A117G A136G showed a self-cleavage of 0.38. Work on C16U G25A U102A U104C yielded a self-cleavage of 1.23. With U1C A65G U85C U108C the self-cleavage was 0. Variant U29C A50U G60A A124C A138G A141C has a self-cleavage of 0.03. Work on U26C G54U A78G U96C U130C yielded a self-cleavage of 0. A57U A77U U85C showed a self-cleavage of 0.24. Variant U12C A64U A124U has a self-cleavage of 1.13. Variant C38G A64G A142G has a self-cleavage of 0.18. For U12A A30U A50G A57G, the self-cleavage was 1.38. With A6U U20C A57G U62C A78G G122A the self-cleavage was 0. In the case of G7A U62A A64G, the self-cleavage is reported as 0.1. For A6U A30G U39G C56U A65G U85A, the self-cleavage was 0. Work on G32A U52C U81C A94G G125A yielded a self-cleavage of 0. Work on U9C U13A U62A U73C yielded a self-cleavage of 0.16. U9A U15G U96C gave a self-cleavage of 0.17. Work on A22G U47A U62C A92G C110U A117U yielded a self-cleavage of 0.07. C19U G75C G114A U115A showed a self-cleavage of 0.58. Variant A42G U46C A78G U96A U143C has a self-cleavage of 0. Work on U5G U14C C116U yielded a self-cleavage of 0.43. A43G G75A A117G gave a self-cleavage of 1.09. A94G G105A G125A showed a self-cleavage of 0.24. With G40A U52A A57U A78G U100A U130C the self-cleavage was 0.02. In the case of A94G U109A U115A A136G, the self-cleavage is reported as 0.27. In the case of A64U U102C A124G A140U, the self-cleavage is reported as 0.35. In the case of U13C A50G A117U U143A, the self-cleavage is reported as 1.59. A78G C113A A117G A138U showed a self-cleavage of 1.24. U14C U115A A136G showed a self-cleavage of 0.66. Variant A2G U26C U39C C101A A129U has a self-cleavage of 0.95. For U47C A69U U130C A140G, the self-cleavage was 0.14. Variant U1C C71A A94G A121U A124G has a self-cleavage of 0. In the case of G86A U91A U109C A136G, the self-cleavage is reported as 0.07. U14C A79U A94G U119C gave a self-cleavage of 0.53. Work on A69G G70C A107G A117U yielded a self-cleavage of 0. With U29A U109C A138G A142G the self-cleavage was 1.49. For U12C U104C G135A, the self-cleavage was 2.12. Work on U5C A64G U132A yielded a self-cleavage of 0. A57G C84U U85C A107U showed a self-cleavage of 0. U39C U96A U102C gave a self-cleavage of 0.09. Work on U15A G36A C71A yielded a self-cleavage of 0.16. For U12C U14C U119C, the self-cleavage was 0.51. In the case of U13C A24U A117G A142G, the self-cleavage is reported as 0. With G49U U91C U112C the self-cleavage was 0.25. For U15A A64G G72A, the self-cleavage was 0.14. A43G G83A A140U gave a self-cleavage of 0.76. U5A U39A C123U U132C showed a self-cleavage of 0.59. With A2G U62C U85C the self-cleavage was 1.09. Work on G7C U39C A43U A94C yielded a self-cleavage of 0.71. G75A U115C U119A gave a self-cleavage of 1.79. Work on U12C A24U A138G U143C yielded a self-cleavage of 1.88. Variant A92G A117G U143C has a self-cleavage of 0. Work on U115C U132A A136G yielded a self-cleavage of 1.61. Variant A6G U81A A140G has a self-cleavage of 0.83. With U62G A77U U112A the self-cleavage was 0.06. In the case of U14C C71A U85C A141G, the self-cleavage is reported as 0.04. U13C U102C U132A showed a self-cleavage of 1.99. With U47A U52C A78U U104C C113U the self-cleavage was 1.47. Work on A30G A67G U87A yielded a self-cleavage of 1. U91C A94G A140G showed a self-cleavage of 0.16. With A42G U62C U96A U130A U132A the self-cleavage was 0.03. With U14C A67G A121G U132C the self-cleavage was 1.15. For U12C U39C A124U A140G, the self-cleavage was 2.42. For A77G A117G G125A, the self-cleavage was 2.09. In the case of A6G U132C G137A, the self-cleavage is reported as 0.65. Variant U52A A77U U104C has a self-cleavage of 0.92. With A77C U109A U130C the self-cleavage was 1.38. A107G A138G A140G showed a self-cleavage of 2.07. U9C U73G A77U showed a self-cleavage of 2.07. With C19U A59G A69G the self-cleavage was 0.21. G49U A79G A121U U130C gave a self-cleavage of 1.51. In the case of U12C A57U U73G, the self-cleavage is reported as 0.17. In the case of A92U G114A U119C, the self-cleavage is reported as 0.55. Work on C63U U91C A124G yielded a self-cleavage of 0.15. In the case of U29A A57G A79G U91C C133A, the self-cleavage is reported as 1.02. U13C U46C U108A U109C G126A showed a self-cleavage of 1.29. C3A U26A A94U G122A U132C showed a self-cleavage of 0.25.

— the RNAGym collection of RNA variant scans (doi:10.7554/elife.90254)
